Measured values published in publication PMC11995724, “Antibiotic target discovery by integrated phenotypic and activity-based profiling of electrophilic fragments” (Cell chemical biology, 2025).
Out of some 3,200 compounds screened, about 75 (2%) showed an effect of 50% or more. This is one part of the list.

test system: T1, S. aureus MSSA476; parameters: species or system S. aureus MSSA476 (TSB) or V. cholerae SAD30 (LB); 384-well bacterial growth screen at 25 uM, OD600 relative to DMSO control; settings: relative growth, OD600, TSB; 25 µM; inhibitor
T1 construct: MSSA476

First: O=C(CCl)c1ccc2c(c1)CCN(C(=O)C(F)(F)F)C2 [10-E09, 1-[6-(2-chloroacetyl)-1,2,3,4-tetrahydroisoquinolin-2-yl]-2,2,2-trifluoroethan-1-one]
Second: CC(Cl)C(=O)c1ccc2c(c1)CCC2 (stereo not shown) [10-M08, 2-chloro-1-(2,3-dihydro-1H-inden-5-yl)propan-1-one]
The “% of control remaining” value of the first is lower: 20.625% for the first, 111.875% for the second.

Compared with `CC(Cl)C(=O)N1C2CCC1CC(O)(Cc1ccc(F)cc1F)C2` (stereo not shown) [7-G18, 2-chloro-1-{3-[(2,4-difluorophenyl)methyl]-3-hydroxy-8-azabicyclo[3.2.1]octan-8-yl}propan-1-one], `CC(Cl)C(=O)Nc1cc(F)ccc1F` (stereo not shown) [6-A09, 2-chloro-N-(2,5-difluorophenyl)propanamide] is lower in “% of control remaining” value: 100.785% for the first, 81.6098% for the second.

Going from `CC(C)c1cccc(C(C)C)c1NC(=O)CCl` [5-G13, N-[2,6-bis(propan-2-yl)phenyl]-2-chloroacetamide] to `CC(Cc1ccc(Cl)s1)NC(=O)CCl` (stereo not shown) [5-N11, 2-chloro-N-[1-(5-chlorothiophen-2-yl)propan-2-yl]acetamide], the “% of control remaining” value falls from 107.468% to 85.2459%.

Compared with `COc1ccc(C=C(C#N)C(=O)Nc2cccnc2)cc1OC` [8-M05, 2-cyano-3-(3,4-dimethoxyphenyl)-N-(pyridin-3-yl)prop-2-enamide], `CCc1ccc(NC(=O)C(C#N)=Cc2cccnc2)cc1` [8-G04, 2-cyano-N-(4-ethylphenyl)-3-(pyridin-3-yl)prop-2-enamide] is lower in “% of control remaining” value: 123.154% for the first, 118.838% for the second.

Compared with `COc1ccc(S(=O)(=O)N2CCCCC2)cc1NC(=O)CCl` [6-G13, 2-chloro-N-[2-methoxy-5-(piperidine-1-sulfonyl)phenyl]acetamide], `COc1ccc2[nH]c3c(c2c1)CCCC3NC(=O)CCl` (stereo not shown) [5-G07, 2-chloro-N-(6-methoxy-2,3,4,9-tetrahydro-1H-carbazol-1-yl)acetamide] is lower in “% of control remaining” value: 107.22% for the first, 100.911% for the second.

Compared with `Cn1ccc(C(=O)CCl)c1` [10-D08, 2-chloro-1-(1-methyl-1H-pyrrol-3-yl)ethan-1-one], `C[C@H]1CN(C(=O)CCl)Cc2cccn21` [5-B03, 2-chloro-1-[(4S)-4-methyl-1H,2H,3H,4H-pyrrolo[1,2-a]pyrazin-2-yl]ethan-1-one] is lower in “% of control remaining” value: 111.563% for the first, 90.3461% for the second.

Compared with `CC(Cl)C(=O)N1CCN(c2ccccc2)CC1.Cl` (stereo not shown) [4-E14, 2-chloro-1-(4-phenylpiperazin-1-yl)propan-1-one hydrochloride], `CC(Cl)C(=O)N1CC(=O)Nc2cc(C(F)(F)F)ccc21` (stereo not shown) [4-N20, 4-(2-chloropropanoyl)-7-(trifluoromethyl)-1,2,3,4-tetrahydroquinoxalin-2-one] is lower in “% of control remaining” value: 118.914% for the first, 118.533% for the second.

Compared with `C=CC(=O)N1CCC(C)C1` (stereo not shown) [2-H17, 1-(3-methylpyrrolidin-1-yl)prop-2-en-1-one], `C=CC(=O)N1CCCC(C2CCN(C(=O)c3cc(C)nn3C)CC2)C1` (stereo not shown) [1-P22, 1-[1'-(1,3-dimethyl-1H-pyrazole-5-carbonyl)-[3,4'-bipiperidin]-1-yl]prop-2-en-1-one] is lower in “% of control remaining” value: 110.009% for the first, 95.6484% for the second.

Compared with `Cc1c(C=C(C#N)C(=O)Nc2cnc3ccccc3c2)cc(C#N)n1C` [9-N15, 2-cyano-3-(5-cyano-1,2-dimethyl-1H-pyrrol-3-yl)-N-(quinolin-3-yl)prop-2-enamide], `CCCn1c(C)cc(C=C(C#N)C(=O)Nc2cccc(C#N)c2)c1C` [8-N19, 2-cyano-N-(3-cyanophenyl)-3-(2,5-dimethyl-1-propyl-1H-pyrrol-3-yl)prop-2-enamide] is higher in “% of control remaining” value: 116.554% for the first, 137.759% for the second.

First: CCc1ccc(Cc2cnc(NC(=O)CCl)s2)cc1 [4-F19, 2-chloro-N-{5-[(4-ethylphenyl)methyl]-1,3-thiazol-2-yl}acetamide]
Second: CCc1ccc(C=C(C#N)C(=O)Nc2cc(C)c(Cl)cc2OC)cc1 [8-G11, N-(4-chloro-2-methoxy-5-methylphenyl)-2-cyano-3-(4-ethylphenyl)prop-2-enamide]
The “% of control remaining” value of the first is higher: 143.687% for the first, 118.174% for the second.

Compared with `C=CC(=O)NCc1ccc(-n2ccnc2)cc1` [1-M18, N-{[4-(1H-imidazol-1-yl)phenyl]methyl}prop-2-enamide], `C=CC(=O)Nc1ccc(C(=O)NC2CCN(C(C)C)C2=O)cc1` (stereo not shown) [3-C10, N-[2-oxo-1-(propan-2-yl)pyrrolidin-3-yl]-4-(prop-2-enamido)benzamide] is lower in “% of control remaining” value: 130.11% for the first, 117.719% for the second.

Compared with `C=CC(=O)Nc1c(C)cnn1CC1CC1` [1-M19, N-[1-(cyclopropylmethyl)-4-methyl-1H-pyrazol-5-yl]prop-2-enamide], `C=CC(=O)NC1CCOCC1` [2-G17, N-(oxan-4-yl)prop-2-enamide] is higher in “% of control remaining” value: 105.846% for the first, 112.794% for the second.

First: Cc1cccc(N(Cc2c(C3CC3)cnn2C)C(=O)CCl)c1 [5-D07, 2-chloro-N-[(4-cyclopropyl-1-methyl-1H-pyrazol-5-yl)methyl]-N-(3-methylphenyl)acetamide]
Second: COC1CCC(N(Cc2cc(C)oc2C)C(=O)CCl)CC1 (stereo not shown) [5-O20, 2-chloro-N-[(2,5-dimethylfuran-3-yl)methyl]-N-(4-methoxycyclohexyl)acetamide]
The “% of control remaining” value of the first is lower: 88.5246% for the first, 91.0747% for the second.

Compared with `CN(C)C(=O)c1cc2n(n1)CC1(CCN(C(=O)CCl)CC1)OC2` [5-K11, 1-(2-chloroacetyl)-N,N-dimethyl-4',7'-dihydrospiro[piperidine-4,6'-pyrazolo[3,2-c][1,4]oxazine]-2'-carboxamide], `C=CC(=O)N(C)CC(=O)N1CCCC1c1nc(C)no1` (stereo not shown) [2-M04, N-methyl-N-{2-[2-(3-methyl-1,2,4-oxadiazol-5-yl)pyrrolidin-1-yl]-2-oxoethyl}prop-2-enamide] is lower in “% of control remaining” value: 104.554% for the first, 103.394% for the second.
